# The whole screen tested about 270,000 compounds, of which about 5,800 (2.1%) were called active. This list was built around the results that the source calls inconclusive (neither active nor inactive); the mix of calls is not that of the screen. Calls come from the whole dose curve; as a rule, active = well fitted inhibition curve with a large enough effect; inconclusive = small, poorly fitted or top-dose-only effect; inactive = flat fitted curve, though single readings scatter. Where the call is inconclusive, the potency comes from a doubtful curve fit.
# Target: Microtubule-associated protein tau (Homo sapiens) (UniProt P10636)
# Experiment: qHTS for Inhibitors of Tau Fibril Formation, Thioflavin T Binding; note: nearly all actives have a fitted effect of over 55% in size
# Settings: recombinant tau K18 P301L, heparin-induced fibrillization, ThT fluorescence; series mostly up to 57.4 µM; activity, negative = inhibition: at the top concentration
# Procedure, shortened: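 Using a mix of unlabeled (15 uM) and Alexa 594-labeled (0.24 uM) tau K18 P301L, heparin-triggered fibrillization over 6 hr at 37 C was scored by ThT fluorescence.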
# % is set by controls: 0 for no effect and ±100 for the full control effect; potency is the fitted concentration of half-maximal effect; tags give direction and shape of the fitted curve.
# Chain of UniProt P10636 (P10636 whole entry, looked up): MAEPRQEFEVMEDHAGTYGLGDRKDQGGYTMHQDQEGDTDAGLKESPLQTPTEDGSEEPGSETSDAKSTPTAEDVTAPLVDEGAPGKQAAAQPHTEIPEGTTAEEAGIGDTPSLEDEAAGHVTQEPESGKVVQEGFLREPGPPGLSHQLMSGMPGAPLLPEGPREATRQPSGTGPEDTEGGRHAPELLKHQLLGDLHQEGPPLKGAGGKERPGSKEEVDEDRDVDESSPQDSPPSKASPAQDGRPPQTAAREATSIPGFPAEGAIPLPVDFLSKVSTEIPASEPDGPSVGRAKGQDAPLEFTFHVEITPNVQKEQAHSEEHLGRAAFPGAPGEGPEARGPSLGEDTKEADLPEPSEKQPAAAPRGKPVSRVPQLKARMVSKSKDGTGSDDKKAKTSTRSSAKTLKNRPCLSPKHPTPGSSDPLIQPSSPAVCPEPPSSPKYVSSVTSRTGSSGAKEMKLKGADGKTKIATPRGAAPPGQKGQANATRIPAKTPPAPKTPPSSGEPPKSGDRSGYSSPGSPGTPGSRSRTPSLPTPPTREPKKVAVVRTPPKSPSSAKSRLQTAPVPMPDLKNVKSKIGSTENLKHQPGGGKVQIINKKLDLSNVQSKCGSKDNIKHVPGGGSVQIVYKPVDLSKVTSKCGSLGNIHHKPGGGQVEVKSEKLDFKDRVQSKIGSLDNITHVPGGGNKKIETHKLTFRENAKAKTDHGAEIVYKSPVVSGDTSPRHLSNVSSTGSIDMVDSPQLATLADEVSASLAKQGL
SMILES,Potency,"activity, negative = inhibition"
Cc1cccc(N=CC=C2OC(C)(C)C(C)(C)O2)c1,"inconclusive: 28.2 µM [inhibitor, single point]",–
CCc1ccc(C2=NNC(=Nc3cccc(S(=O)(=O)N(C)C)c3)SC2)cc1,"inconclusive: 20 µM [inhibitor, partial curve]",–
Cc1sc(NC(=O)c2ccccc2F)c(CN2CCCCC2C)c1C (configuration not stated),"inconclusive: 22.4 µM [inhibitor, single point]",–
O=C(C1=C(O)C(=O)N(CC2CCCO2)C1c1cccnc1)c1ccco1 (configuration not stated),–,inactive: -10.8%
CN(C)c1ccc(C(CNC(=O)c2ccccc2)c2c[nH]c3ccccc23)cc1 (configuration not stated),"inconclusive: 12.6 µM [inhibitor, partial curve]",–
Cc1ccc(-c2csc(N/N=C/c3ccco3)n2)c(C)c1,"inconclusive: 10 µM [inhibitor, partial curve]",–
COc1cccc(NC(=O)C2CCN(c3nc4ccccc4nc3C(F)(F)F)CC2)c1,–,inactive: -1.61%
CC(=O)c1sc(NC(=O)c2c(F)cccc2F)nc1C,–,inactive: -3.38%
CN(Cc1ccccc1)C(=O)[C@H](Cc1ccc2ccccc2c1)NC(=O)[C@@H]1C[C@@H](O)CN1C(=O)c1cn(C)c2ccccc12,"inconclusive: 31.6 µM [inhibitor, partial curve]",–
Cc1cc(C)n2c(Nc3ccccc3)c(-c3ccccc3)nc2n1,–,inactive: -6.4%
CCOC(=O)c1c(/N=C/C2C(=O)CC(C)(C)CC2=O)sc2c1CCCC2,"inconclusive: 20 µM [inhibitor, single point]",–
CC(NC(=O)C(NC(=O)C1CCCN1C(=O)OC(C)(C)C)C(C)C)C(N)=O (configuration not stated),–,inactive: 0.54%
Cc1cc(C)c2oc(C(=O)Nc3ccc(S(=O)(=O)N4CCC(C)CC4)cc3)cc(=O)c2c1,"inconclusive: 5.01 µM [inhibitor, partial curve]",–
Cc1cccc(NC(=O)c2ccc(COc3cccc4ccccc34)o2)n1,"inconclusive: 14.1 µM [inhibitor, partial curve]",–
CC(C)(C)c1[nH]nc2c1C(c1ccoc1)C(C#N)=C(N)O2 (configuration not stated),–,inactive: -22.2%
Cc1ccc2sc(NNC(=O)c3ccc4c(c3)OCCO4)nc2c1C,active: 12.6 µM,–
COc1ccccc1-c1ccc(/C=C2/C=C(CC(C)C)OC2=O)o1,active: 8.91 µM,–
O=C(NC1CC(=O)N(c2cccc(F)c2)C1)C(c1ccccc1)c1ccccc1 (configuration not stated),–,inactive: -3.97%
Cc1ccccc1OCC(=O)Nc1cc(S(=O)(=O)N2CCCCC2)ccc1N1CCN(C)CC1,–,inactive: -5.23%
CCc1cc2c(-c3ccccc3)cc(=O)oc2c2c1OCN(Cc1ccc(F)cc1)C2,"inconclusive: 22.4 µM [inhibitor, partial curve]",–
COc1ccc(C(=O)NCC(c2ccc(N(C)C)cc2)N2CCc3ccccc32)cc1 (configuration not stated),active: 15.8 µM,–
N#C/C(=C(/O)CN1CCN(c2ccccc2F)CC1)c1nc(-c2ccc(Cl)cc2)cs1,"inconclusive: 3.55 µM [inhibitor, full curve]",–
CC(C)C(=O)N(c1ccc(F)cc1)C1C=CS(=O)(=O)C1 (configuration not stated),"inconclusive: 15.8 µM [inhibitor, partial curve]",–
COc1ccc(-n2c(C)cc(C(=O)CSc3nnc(-c4cccs4)o3)c2C)cc1,"inconclusive: 11.2 µM [inhibitor, partial curve]",–

SMILES,Potency,"activity, negative = inhibition"
CCn1c2ccccc2c2cc(N)ccc21,"inconclusive: 14.1 µM [inhibitor, partial curve]",–
Oc1ccc2c(c1)C1CCCC1(N1CCOCC1)O2 (configuration not stated),"inconclusive: 31.6 µM [inhibitor, partial curve]",–
Cc1ccc(Cn2c(Sc3nnc(C)s3)nc3c2c(=O)[nH]c(=O)n3C)cc1,–,inactive: -4.54%
S=C1NCCc2ccccc2C1c1ccccc1Cl (configuration not stated),–,inactive: -3.58%
CCn1c(/C(C#N)=C/c2ccccc2Cl)nc2ccccc21,"inconclusive: 14.1 µM [inhibitor, partial curve]",–
COC(=O)c1cc(=O)n(Cc2ccco2)c(=Nc2ccc(F)c(Cl)c2)s1,"inconclusive: 25.1 µM [inhibitor, partial curve]",–
CCOC(=O)N1CCc2c(sc3nc(SC(C)C)n(N)c(=O)c23)C1,"inconclusive: 35.5 µM [inhibitor, single point]",–
O=S(=O)(c1ccc(Cl)cc1)c1nc(-c2ccccc2)oc1N1CCN(c2ccccc2)CC1,–,inactive: -0.914%
C=CCNS(=O)(=O)c1nc(C)c(Cl)c(C)c1C#N,–,inactive: 2.68%
COc1ccc(C)cc1-n1c(=O)c2ccccc2c2ccccc2c1=O,"inconclusive: 25.1 µM [inhibitor, partial curve]",–
O=C(Nc1ccc(Br)cc1)c1cccc(C(=O)Nc2ccc(Br)cc2)c1,–,inactive: 6%
CCc1nc(SCC(=O)c2cccc([N+](=O)[O-])c2)n[nH]1,"inconclusive: 35.5 µM [inhibitor, single point]",–
CC1=CC(C)(C(Cl)Cl)C(C)=CC1=O (configuration not stated),–,inactive: 10.5%
CC(NC(=O)COC(=O)/C(=C/c1cccs1)c1cccs1)c1ccccc1 (configuration not stated),"inconclusive: 31.6 µM [inhibitor, partial curve]",–
COc1ccc(Nc2c3c(nc4ccc(NC(=O)/C=C/c5cccc(OC)c5OC)cc24)CCCC3)cc1OC,active: 14.1 µM,–
CCOC(=O)c1cc(NC(=O)c2ccc(Cl)cc2)c(=O)n2c1oc1ccccc12,–,inactive: -16.2%
O=C1CC(N2CCN(c3ccc(Cl)c(Cl)c3)CC2)C(=O)N1 (configuration not stated),–,inactive: 2.9%
CC(=O)[C@H]1[C@H](c2cccc(Cl)c2)C(C#N)(C#N)[C@@H]2c3ccccc3C=CN21,"inconclusive: 17.8 µM [inhibitor, partial curve]",–
CCc1ccc2nc(N3CCN(C(=O)c4ccco4)CC3)sc2c1,"inconclusive: 1.58 µM [inhibitor, full curve]",–
CCOC(=O)Cc1csc(NC(=O)CSc2cc(Cl)ccc2Cl)n1,–,inactive: -14.2%
COc1ccc(Nc2nnc(-c3ccc(C)c(S(N)(=O)=O)c3)c3ccccc23)cc1,"inconclusive: 11.2 µM [inhibitor, partial curve]",–
COc1ccc(C2=Nn3c(nnc3-c3ccco3)SC2)cc1,"inconclusive: 28.2 µM [inhibitor, single point]",–
COc1cccc(-n2nnc3c(=O)n(CC(=O)N4CCCc5ccccc54)cnc32)c1,–,inactive: -9.05%

# Reference: PubChem BioAssay AID1460 (National Center for Advancing Translational Sciences (NCATS), 2008)
